According to PubChem BioAssay AID463173 (ICCB-Longwood Screening Facility, Harvard Medical School, 2010):
In all, about 52,000 compounds went through this assay and about 1,700 (3.3%) were called active. Rule as the data show it: active = survival mostly below about 52% (no sharp cut-off); inactive = mostly above about 56%. This is one part of the list.

system: Wild type; experiment: S. aureus survival, RN4220 and DeltatarO strains – OD600, teichoic acid synthesis inhibitors, primary screen (AID 463173); conditions: S. aureus RN4220 wild type/DeltatarO growth, OD600, 18 h, active compounds read low, screened at 18.75 µg/mL (by protocol)

| Compound | survival |
| --- | --- |
| O=C(CCC(=O)N1CCSc2ccccc21)Nc1ccc(Cl)cc1 | inactive: 75% |
| CCC(CC)c1nn2c(=O)cc(COc3ccc(NC(=O)c4cccc(C)c4)cc3)nc2s1 | inactive: 129% |
| CCOc1cccc(C(=O)N(Cc2ccc(C)o2)C2CCS(=O)(=O)C2)c1 (stereo not given) | inactive: 90% |
| CCN1C(=O)CC(C(=O)NC)SC1=Nc1cc(Cl)c(O)c(Cl)c1 (stereo not given) | inactive: 99% |
| COc1ccccc1CNS(=O)(=O)c1cc(Br)cc2c1N(C(=O)C1CC1)CC2 | inactive: 60% |
| COc1ccc(CNc2nc(-c3ccc(Cl)cc3)nn2S(=O)(=O)c2ccc(C)cc2)cc1 | inactive: 64% |
| COc1ccc(CNC(=O)c2ccc3c(c2)N(Cc2cc(C)ccc2C)C(=O)CS3)cc1 | inactive: 77% |
| O=C(NCc1ccncc1)C1CCN(C(=O)c2cccc(Cl)c2)CC1 | inactive: 111% |
| CCCCC(CC)C(=O)Nc1ccccc1C#N (stereo not given) | inactive: 116% |
| COc1ccccc1OCC(=O)N(Cc1ccco1)Cc1ccccc1F | inactive: 80% |
| CC(CNC(=O)c1ccc2c(c1)nc1n2CCCCC1)c1ccccc1 (stereo not given) | inactive: 83% |
| CCOc1ccc(CC(=O)NC2CC(=O)N(c3cccc(F)c3)C2)cc1 (stereo not given) | inactive: 77% |
| O=c1cc(COc2ccc(Cl)cc2Cl)nc2scc(-c3ccccc3)n12 | inactive: 90% |
| CCOc1ccc(-n2c(=O)c3c(C)c(C)sc3n(CC(=O)C(C)(C)C)c2=O)cc1 | inactive: 125% |
| O=C1CCCN1CCCNc1ccc(Cl)nn1 | inactive: 116% |
| Cc1cc(NS(=O)(=O)c2ccc(NC(=O)COc3c(C)ccc(C)c3C)cc2)nc(C)n1 | inactive: 78% |
| O=C(OC(C(=O)NC1CCCC1)c1cccnc1)C1=Cc2ccccc2OC1 (stereo not given) | inactive: 111% |
| COc1ccccc1-c1nn2c(=O)cc(CN3CCN(C(=O)Nc4ccc(C)cc4Cl)CC3)nc2s1 | inactive: 83% |
| Cc1ccc(C2C(=O)N(C3CCC(C)CC3)CC(=O)N2C2CCCC2)cc1 (stereo not given) | inactive: 70% |
| COc1ccc(CNC(=O)COCc2cc(-c3ccc4c(c3)OCO4)on2)cc1 | inactive: 87% |
| COc1cc(C(=O)NCC(c2ccco2)S(=O)(=O)c2cccs2)cc(OC)c1OC (stereo not given) | inactive: 63% |
| CCc1cccc(C)c1NC(=O)c1ccc2c(c1)CCN2S(=O)(=O)c1ccc(Cl)cc1 | inactive: 85% |
| CCS(=O)(=O)N1CCc2cc(C(=O)Nc3ccc(Br)cc3F)ccc21 | inactive: 109% |
| Cc1ccc(-n2c(=O)c3c(c4cc(C)ccc4n3C)n(CC(=O)Nc3ccc(F)cc3)c2=O)cc1 | inactive: 113% |
| CC(=O)c1ccc(N2CCN(C(=O)c3cn(C)c(=O)c4c3c3ccccc3n4C)CC2)cc1 | inactive: 95% |
